Assay results as given in the supplement of paper PMC9990464.
Structures can show the parent of a compound that is named as a salt. Some of the results follow. Single values are uncertain, as repeats are few or missing.

How the values were obtained:
Experiment in all cases: area under viability curve (10 nM-1 µM), viability relative to solvent or trametinib-only control (AUC (arbitrary, % viability x concentration range)); higher = less growth inhibition (more viable cells)
[1] = system: KCNR; conditions: 72 h compound exposure (96 h after seeding) h
Method: (§1)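 Four neuroblastoma cell lines (KCNR, SKNBE, SJNB8, SKNAS) were seeded in 384-well plates. At 24 h, 1 µM trametinib or DMSO was added, followed by library compounds at 10 nM, 100 nM and 1 µM. Viability was read by MTT at 96 h and normalised to solvent-treated cells (DMSO arm) or to trametinib-only cells (trametinib arm). The area under the 3-point viability curve was computed in GraphPad Prism; units are as given (approx. 100000 = no effect).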

[2] = system: SJNB8; conditions: 72 h compound exposure (96 h after seeding) h; trametinib co-treatment 0 µM
Method: as §1

[3] = system: SKNAS; conditions: 72 h compound exposure (96 h after seeding) h
Method: as §1

[4] = system: SKNBE; conditions: 72 h compound exposure (96 h after seeding) h
Method: as §1
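Note: KCNR is a neuroblastoma cell line carrying an ALK mutation, in this DMSO arm without trametinib, viability was normalised to solvent-treated cells.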

SMILES	area under viability curve ([1]; trametinib co-treatment 0 µM)	area under viability curve ([1]; trametinib co-treatment 1 µM)	area under viability curve [2]	area under viability curve ([3]; trametinib co-treatment 0 µM)	area under viability curve ([3]; trametinib co-treatment 1 µM)	area under viability curve ([4]; trametinib co-treatment 0 µM)	area under viability curve ([4]; trametinib co-treatment 1 µM)
Cc1ccc(NC(=O)c2ccc(CN3CCN(C)CC3)cc2)cc1Nc1nc(-c2cccnc2)cs1 [Masitinib]	104000	106000	79000	99000	108000	106000	118000
CCOc1cc2ncc(C#N)c(Nc3ccc(F)c(Cl)c3)c2cc1NC(=O)/C=C/CN(C)C [Pelitinib]	88000	84300	84700	84400	93400	90300	79100
Nc1ccn([C@@H]2O[C@H](CO)[C@@H](O)[C@@H]2O)c(=O)n1 [Cytarabine]	89200	86300	55400	65600	69900	68800	62100
COc1cc2c(N3CCN(C(=O)Nc4ccc(OC(C)C)cc4)CC3)ncnc2cc1OCCCN1CCCCC1 [Tandutinib]	95500	102000	96600	123000	99900	101000	99300
C[C@]12CC[C@H](O)CC1=CC[C@@H]1[C@@H]2CC[C@]2(C)C(n3cnc4ccccc43)=CC[C@@H]12 [Galeterone]	106000	107000	102000	126000	96300	108000	102000
N#Cc1c(O)c2c(-c3ccc(-c4ccccc4O)cc3)csc2[nH]c1=O	94900	99900	104000	122000	96000	97700	99000
CC(=O)[C@]1(O)Cc2c(O)c3c(c(O)c2[C@@H](O[C@H]2C[C@H](N)[C@H](O)[C@H](C)O2)C1)C(=O)c1ccccc1C3=O [Idarubicin HCl]	2990	1300	39100	30800	26000	19700	6720
CS(=O)(=O)CCNCc1ccc(-c2ccc3ncnc(Nc4ccc(OCc5cccc(F)c5)c(Cl)c4)c3c2)o1 [Lapatinib]	105000	97800	71900	71800	104000	87100	102000
CC(C)C[C@H](NC(=O)[C@H](Cc1ccccc1)NC(=O)c1cnccn1)B(O)O [Bortezomib]	2260	1830	2890	8590	7500	11100	3520
CCCC(CCC)C(=O)O [Valproic acid]	103000	104000	86300	78900	95800	95500	103000
CCCCCCCCCCCCCCCCCCCCCC(=O)Nc1ccn([C@@H]2O[C@H](CO)[C@@H](O)[C@@H]2O)c(=O)n1 [Enocitabine]	75800	70000	55100	69200	80800	53700	49600
Nc1nc(F)nc2c1ncn2[C@@H]1O[C@H](CO)[C@@H](O)[C@@H]1O [Fludarabine]	104000	98600	110000	109000	99800	102000	101000
O=C(CCCCCCC(=O)Nc1ccccc1)NO [Vorinostat]	62200	49100	76500	69100	68200	77200	63700
CNC(=O)c1ccccc1Sc1ccc2c(/C=C/c3ccccn3)n[nH]c2c1 [Axitinib]	62400	63400	89000	99300	92300	83100	79600
Cc1ccc2c(=O)c3cccc(CC(=O)O)c3oc2c1C [Vadimezan]	99700	96300	108000	116000	104000	96100	94600
O=C(O)C(=O)O.[NH-][C@@H]1CCCC[C@H]1[NH-].[Pt+2] [Oxaliplatin]	103000	100000	85500	111000	99900	101000	109000
O=NN(CCCl)C(=O)NC1CCCCC1 [Lomustine]	102000	105000	104000	97600	103000	115000	110000
CCCCC(=O)OCC(=O)[C@]1(O)Cc2c(O)c3c(c(O)c2[C@@H](O[C@H]2C[C@H](NC(=O)C(F)(F)F)[C@H](O)[C@H](C)O2)C1)C(=O)c1c(OC)cccc1C3=O [Valrubicin]	56100	38700	64100	59300	78500	83600	78800
CCN(CC)CCNC(=O)c1c(C)[nH]c(/C=C2\C(=O)Nc3ccc(F)cc32)c1C [Sunitinib]	95100	93000	83800	102000	101000	97100	103000
